For 21 compounds, IC50 results are on record in patent US20240262848A1, “HETEROCYCLIC COMPOUNDS, COMPOSITIONS THEREOF, AND METHODS OF TREATMENT THEREWITH” (BeiGene, Ltd., priority 2022, published 2024).

This experiment deals with GST-tagged GDP-loaded WT KRAS (amino acids 1-169) (Homo sapiens, UniProt P01116). Nature of the experiment: KRAS WT probe displacement assay (run with the KRAS G12V assay, TR-FRET). The format is binding. The conditions noted are these: Table 4; WT KRAS 3 nM, biotinylated probe 1 60 nM. A general note: TR-FRET usually uses a lanthanide donor and a delayed reading to cut background.
`CN1c2nc(OC[C@@]34CCCN3C[C@H](F)C4)nc3c(F)c(-c4cc(N)cc(Cl)c4C(F)(F)F)nc(c23)O[C@@H]2CCC[C@H](O)[C@H]21` (relative stereo) [Example 47, (7aR*,11S*,11aR*)-5-(5-amino-3-chloro-2-(trifluoromethyl)phenyl)-4-fluoro-2-(((2R,7aS)-2-fluorotetrahydro-1H-pyrrolizin-7a(5H)-yl)methoxy)-12-methyl-7a, 8,10,11,11a, 12-hexahydro-9H-7-oxa-1,3,6,12-tetraazapleiaden-11-ol] returned an IC50 of 0.84 nM.
For `CN1c2nc(OC[C@@]34CCCN3C[C@H](F)C4)nc3c(F)c(-c4cc(N)cc(Cl)c4C(F)(F)F)nc(c23)OC[C@H]2COC[C@@H]21` (single isomer, unassigned) [Example 68 Isomer 1] the value was 0.93 nM.
For `C#Cc1c(F)ccc2cc(O)cc(-c3cc4c5c(nc(OC[C@@]67CCCN6C[C@H](F)C7)nc5c3F)N(C)CCCO4)c12` [Example 1, 5-ethynyl-6-fluoro-4-(11-fluoro-2-(((2R,7aS)-2-fluorotetrahydro-1H-pyrrolizin-7a(5H)-yl)methoxy)-4-methyl-4,5,6,7-tetrahydro-[1,5]oxazocino[4,3,2-de]quinazolin-10-yl)naphthalen-2-ol] the value was 11 nM; for `Cc1cc(N)cc(-c2nc3c4c(nc(OC[C@@]56CCCN5C[C@H](F)C6)nc4c2F)N(C)CCO3)c1C(F)(F)F` [Example 3, 3-(4-fluoro-2-(((2R,7aS)-2-fluorotetrahydro-1H-pyrrolizin-7a(5H)-yl)methoxy)-10-methyl-9,10-dihydro-8H-7-oxa-1,3,6,10-tetraazacyclohepta[de]naphthalen-5-yl)-5-methyl-4-(trifluoromethyl)aniline], 29 nM; for `Nc1cc(Cl)c(C(F)(F)F)c(-c2nc3c4c(nc(OC[C@@]56CCCN5C[C@H](F)C6)nc4c2F)N(C2CC2)CCCO3)c1` [Example 4, 3-chloro-5-(11-cyclopropyl-4-fluoro-2-(((2R,7aS)-2-fluorotetrahydro-1H-pyrrolizin-7a(5H)-yl)methoxy)-8,9,10,11-tetrahydro-7-oxa-1,3,6,11-tetraazacycloocta[de]naphthalen-5-yl)-4-(trifluoromethyl)aniline], 7.3 nM.
Then `C#Cc1c(F)ccc2cc(O)cc(-c3nc4c5c(nc(OC[C@@]67CCCN6C[C@H](F)C7)nc5c3F)N(C3CC3)CCCO4)c12` [Example 5, 4-(11-cyclopropyl-4-fluoro-2-(((2R,7aS)-2-fluorotetrahydro-1H-pyrrolizin-7a(5H)-yl)methoxy)-8,9,10,11-tetrahydro-7-oxa-1,3,6,11-tetraazacycloocta[de]naphthalen-5-yl)-5-ethynyl-6-fluoronaphthalen-2-ol], with 1.3 nM; and `CC1CCOc2nc(-c3cc(N)cc(Cl)c3C(F)(F)F)c(F)c3nc(OC[C@@]45CCCN4C[C@H](F)C5)nc(c23)N1C` (stereo partly drawn) [Example 6, 3-chloro-5-(4-fluoro-2-(((2R,7aS)-2-fluorotetrahydro-1H-pyrrolizin-7a(5H)-yl)methoxy)-10,11-dimethyl-8,9,10,11-tetrahydro-7-oxa-1,3,6,11-tetraazacycloocta[de]naphthalen-5-yl)-4-(trifluoromethyl)aniline], with 5 nM; and `Nc1cc(Cl)c(C(F)(F)F)c(-c2nc3c4c(nc(OC[C@@]56CCCN5C[C@H](F)C6)nc4c2F)N(CCO)CCO3)c1` [Example 7, 2-(5-(5-amino-3-chloro-2-(trifluoromethyl)phenyl)-4-fluoro-2-(((2R,7aS)-2-fluorotetrahydro-1H-pyrrolizin-7a(5H)-yl)methoxy)-8,9-dihydro-10H-7-oxa-1,3,6,10-tetraazacyclohepta[de]naphthalen-10-yl)ethan-1-ol], with 5.1 nM.
In turn, `Nc1cc(Cl)c(C(F)(F)F)c(-c2nc3c4c(nc(OC[C@@]56CCCN5C[C@H](F)C6)nc4c2F)N(C2CC2)CCO3)c1` [Example 8, 3-chloro-5-(10-cyclopropyl-4-fluoro-2-(((2R,7aS)-2-fluorotetrahydro-1H-pyrrolizin-7a(5H)-yl)methoxy)-9,10-dihydro-8H-7-oxa-1,3,6,10-tetraazacyclohepta[de]naphthalen-5-yl)-4-(trifluoromethyl)aniline] had an IC50 of 16 nM. This IC50 is about 3.1-fold higher than that of the compound before.
The compound `CN1CCCOc2nc(-c3cc(N)cc(Cl)c3C(F)(F)F)c(F)c3nc(OC[C@@]45CCCN4C[C@H](F)C5)nc1c23` [Example 9, 3-chloro-5-(4-fluoro-2-(((2R,7aS)-2-fluorotetrahydro-1H-pyrrolizin-7a(5H)-yl)methoxy)-11-methyl-8,9,10,11-tetrahydro-7-oxa-1,3,6,11-tetraazacycloocta[de]naphthalen-5-yl)-4-(trifluoromethyl)aniline] came in with an IC50 of 10 nM. Compared with the last compound, the IC50 is about 1.6-fold lower.
Then `CN1CC2(COC2)COc2nc(-c3cc(N)cc(Cl)c3C(F)(F)F)c(F)c3nc(OC[C@@]45CCCN4C[C@H](F)C5)nc1c23` [Example 11, 3-chloro-5-(4-fluoro-2-(((2R,7aS)-2-fluorotetrahydro-1H-pyrrolizin-7a(5H)-yl)methoxy)-11-methyl-10,11-dihydro-8H-7-oxa-1,3,6,11-tetraazaspiro[cycloocta[de]naphthalene-9,3′-oxetan]-1(11a), 2,3a, 3 al(6a), 5-pentaen-5-yl)-4-(trifluoromethyl)aniline], with 16 nM; and `CC1CN(C)c2nc(OC[C@@]34CCCN3C[C@H](F)C4)nc3c(F)c(-c4cc(N)cc(Cl)c4C(F)(F)F)nc(c23)O1` (stereo partly drawn) [Example 12, 3-chloro-5-(4-fluoro-2-(((2R,7aS)-2-fluorotetrahydro-1H-pyrrolizin-7a(5H)-yl)methoxy)-8,10-dimethyl-9,10-dihydro-8H-7-oxa-1,3,6,10-tetraazacyclohepta[de]naphthalen-5-yl)-4-(trifluoromethyl)aniline], with 4.2 nM; and `C#Cc1c(F)ccc2cc(O)cc(-c3nc4c5c(nc(OC[C@@]67CCCN6C[C@H](F)C7)nc5c3F)N(C3CCC3)CCCO4)c12` [Example 13, 4-(11-cyclobutyl-4-fluoro-2-(((2R,7aS)-2-fluorotetrahydro-1H-pyrrolizin-7a(5H)-yl)methoxy)-8,9,10,11-tetrahydro-7-oxa-1,3,6,11-tetraazacycloocta[de]naphthalen-5-yl)-5-ethynyl-6-fluoronaphthalen-2-ol], with 1.5 nM.
Then `CC1CCN(C)c2nc(OC[C@@]34CCCN3C[C@H](F)C4)nc3c(F)c(-c4cc(N)cc(Cl)c4C(F)(F)F)nc(c23)O1` (stereo partly drawn) [Example 14, 3-chloro-5-(4-fluoro-2-(((2R,7aS)-2-fluorotetrahydro-1H-pyrrolizin-7a(5H)-yl)methoxy)-8,11-dimethyl-8,9,10,11-tetrahydro-7-oxa-1,3,6,11-tetraazacycloocta[de]naphthalen-5-yl)-4-(trifluoromethyl)aniline], with 30 nM; and `CC1COc2nc(-c3cc(N)cc(Cl)c3C(F)(F)F)c(F)c3nc(OC[C@@]45CCCN4C[C@H](F)C5)nc(c23)N(C)C1` (stereo partly drawn) [Example 15, 3-chloro-5-(4-fluoro-2-(((2R,7aS)-2-fluorotetrahydro-1H-pyrrolizin-7a(5H)-yl)methoxy)-9,11-dimethyl-8,9,10,11-tetrahydro-7-oxa-1,3,6,11 tetraazacycloocta[de]naphthalen-5-yl)-4-(trifluoromethyl)aniline], with 13 nM; and `CCc1c(F)ccc2cc(O)cc(-c3nc4c5c(nc(OC[C@@]67CCCN6C[C@H](F)C7)nc5c3F)N(C)C(C)CCO4)c12` (stereo partly drawn) [Example 16, 5-ethyl-6-fluoro-4-(4-fluoro-2-(((2R,7aS)-2-fluorotetrahydro-1H-pyrrolizin-7a(5H)-yl)methoxy)-10,11-dimethyl-8,9,10,11-tetrahydro-7-oxa-1,3,6,11-tetraazacycloocta[de]naphthalen-5-yl)naphthalen-2-ol], with 2.6 nM.
Then `CN1c2nc(OC[C@@]34CCCN3C[C@H](F)C4)nc3c(F)c(-c4ccc(F)c5sc(N)c(C#N)c45)c(Cl)c(c23)OCC12COC2` [Example 18, 2-amino-4-(8′-chloro-10′-fluoro-2′-(((2R,7aS)-2-fluorotetrahydro-1H-pyrrolizin-7a(5H)-yl)methoxy)-4′-methyl-4′H, 6′H-spiro[oxetane-3,5′-[1,4]oxazepino[5,6,7-de]quinazolin]-9′-yl)-7-fluorobenzo[b]thiophene-3-carbonitrile], with 1.3 nM; and `C[C@@H]1CCOc2c(Cl)c(-c3ccc(F)c4sc(N)c(C#N)c34)c(F)c3nc(OC[C@@]45CCCN4C[C@H](F)C5)nc(c23)N1C` [Example 19, 2-amino-4-((R)-9-chloro-11-fluoro-2-(((2R,7aS)-2-fluorotetrahydro-1H-pyrrolizin-7a(5H)-yl)methoxy)-4,5-dimethyl-4,5,6,7-tetrahydro-[1,5]oxazocino[4,3,2-de]quinazolin-10-yl)-7-fluorobenzo[b]thiophene-3-carbonitrile], with 0.66 nM; and `CC1CC(C)N(C)c2nc(OC[C@@]34CCCN3C[C@H](F)C4)nc3c(F)c(-c4cc(N)cc(Cl)c4C(F)(F)F)nc(c23)O1` (stereo partly drawn) [Example 21, 3-chloro-5-(4-fluoro-2-(((2R,7aS)-2-fluorotetrahydro-1H-pyrrolizin-7a(5H)-yl)methoxy)-8,10,11-trimethyl-8,9,10,11-tetrahydro-7-oxa-1,3,6,11-tetraazacycloocta[de]naphthalen-5-yl)-4-(trifluoromethyl)aniline], with 3.4 nM.
In turn, `CC1COc2nc(-c3cc(N)cc(Cl)c3C(F)(F)F)c(F)c3nc(OC[C@@]45CCCN4C[C@H](F)C5)nc(c23)N1C` (stereo partly drawn) [Example 22, 3-chloro-5-(4-fluoro-2-(((2R,7aS)-2-fluorotetrahydro-1H-pyrrolizin-7a(5H)-yl)methoxy)-9,10-dimethyl-9,10-dihydro-8H-7-oxa-1,3,6,10-tetraazacyclohepta[de]naphthalen-5-yl)-4-(trifluoromethyl)aniline] had an IC50 of 12 nM.
For `CN1c2nc(OC[C@@]34CCCN3C[C@H](F)C4)nc3c(F)c(-c4cc(N)cc(Cl)c4C(F)(F)F)nc(c23)OCC12COC2` [Example 23, 3-chloro-5-(4-fluoro-2-(((2R,7aS)-2-fluorotetrahydro-1H-pyrrolizin-7a(5H)-yl)methoxy)-10-methyl-8H, 10H-7-oxa-1,3,6,10-tetraazaspiro[cyclohepta[de]naphthalene-9,3′-oxetan]-1(10a), 2,3a, 3a^1(6a), 5-pentaen-5-yl)-4-(trifluoromethyl)aniline] the value was 18 nM.

Usually IC50 stands for the concentration that inhibits the measured activity by half.
